This is one part of the list.
Experiments:
Experiment in all cases: glycan array binding signal (z-score within array); higher = stronger binding
Conditions in all cases: glycan notation: IUPAC condensed, linker removed
[1] = target: Neu5Ac(a2-6)Gal(b1-4)GlcNAc(b1-3)Gal(b1-4)GlcNAc(b1-2)Man(a1-3)[Neu5Ac(a2-6)Gal(b1-4)GlcNAc(b1-3)Gal(b1-4)GlcNAc(b1-2)Man(a1-6)]GalNAc
How it was run: (§1)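 Glycan array data came from 3228 arrays in the Consortium for Functional Glycomics database, and only arrays with an available protein sequence were kept. Glycan names were put into IUPAC-condensed notation, and columns mapping to the same glycan were averaged. The binding signal is a within-array Z-score, averaged across arrays of one protein sequence run at different concentrations or buffers and across linkers. A negative Z-score can be read as non-binding.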

[2] = target: Neu5Ac(a2-6)Gal(b1-4)GlcNAc(b1-3)Gal(b1-4)GlcNAc(b1-3)Gal(b1-4)GlcNAc
How it was run: as §1

[3] = target: Neu5Ac(a2-6)Gal(b1-4)GlcNAc(b1-3)Gal(b1-4)GlcNAc(b1-3)Gal(b1-4)GlcNAc(b1-2)Man(a1-3)[Neu5Ac(a2-6)Gal(b1-4)GlcNAc(b1-3)Gal(b1-4)GlcNAc(b1-3)Gal(b1-4)GlcNAc(b1-2)Man(a1-6)]GalNAc
How it was run: as §1

[4] = target: Neu5Ac(a2-6)Gal(b1-4)GlcNAc(b1-3)Gal(b1-4)GlcNAc(b1-3)GalNAc
How it was run: as §1

[5] = target: Neu5Ac(a2-6)Gal(b1-4)GlcNAc(b1-3)Gal(b1-4)GlcNAc(b1-3)[Neu5Ac(a2-6)Gal(b1-4)GlcNAc(b1-3)Gal(b1-4)GlcNAc(b1-6)]GalNAc
How it was run: as §1

[6] = target: Neu5Ac(a2-6)Gal(b1-4)GlcNAc(b1-3)Gal(b1-4)GlcNAc(b1-6)[Gal(b1-3)]GalNAc
How it was run: as §1

[7] = target: Neu5Ac(a2-6)Gal(b1-4)GlcNAc(b1-3)Gal(b1-4)[Fuc(a1-3)]GlcNAc(b1-3)Gal(b1-4)[Fuc(a1-3)]GlcNAc
How it was run: as §1

[8] = target: Neu5Ac(a2-6)Gal(b1-4)GlcNAc(b1-3)GalNAc
How it was run: as §1

[9] = target: Neu5Ac(a2-6)Gal(b1-4)GlcNAc(b1-3)[Neu5Ac(a2-6)Gal(b1-4)GlcNAc(b1-6)]GalNAc
How it was run: as §1

[10] = target: Neu5Ac(a2-6)Gal(b1-4)GlcNAc(b1-6)GalNAc
How it was run: as §1

[11] = target: Neu5Ac(a2-6)Gal(b1-4)GlcNAc(b1-6)[Gal(b1-3)GlcNAc(b1-3)]Gal(b1-4)Glc
How it was run: as §1

[12] = target: Neu5Ac(a2-6)Gal(b1-4)GlcNAc(b1-6)[Gal(b1-3)]GalNAc
How it was run: as §1

[13] = target: Neu5Ac(a2-6)Gal(b1-4)GlcNAc6S
How it was run: as §1

Neu5Ac(a2-6)GalNAc = target: Neu5Ac(a2-6)GalNAc
How it was run: as §1

[14] = target: Neu5Ac(a2-6)GalNAc(b1-4)GlcNAc
How it was run: as §1

[15] = target: Neu5Ac(a2-6)GalNAc(b1-4)GlcNAc6S
How it was run: as §1

[16] = target: Neu5Ac(a2-6)GlcNAc(b1-4)GlcNAc
How it was run: as §1

[17] = target: Neu5Ac(a2-6)GlcNAc(b1-4)GlcNAc(b1-4)GlcNAc
How it was run: as §1

Neu5Ac(a2-8)Neu5Ac = target: Neu5Ac(a2-8)Neu5Ac
How it was run: as §1

[18] = target: Neu5Ac(a2-8)Neu5Ac(a2-3)Gal(b1-3)GalNAc(b1-4)[Neu5Ac(a2-3)]Gal(b1-4)Glc
How it was run: as §1

[19] = target: Neu5Ac(a2-8)Neu5Ac(a2-3)Gal(b1-3)GalNAc(b1-4)[Neu5Ac(a2-8)Neu5Ac(a2-3)]Gal(b1-4)Glc
How it was run: as §1

[20] = target: Neu5Ac(a2-8)Neu5Ac(a2-3)Gal(b1-4)Glc
How it was run: as §1

[21] = target: Neu5Ac(a2-8)Neu5Ac(a2-3)Gal(b1-4)GlcNAc
How it was run: as §1

[22] = target: Neu5Ac(a2-8)Neu5Ac(a2-3)[Gal(b1-3)GalNAc(b1-4)]Gal(b1-4)Glc
How it was run: as §1

[23] = target: Neu5Ac(a2-8)Neu5Ac(a2-3)[GalNAc(b1-4)]Gal(b1-4)Glc
How it was run: as §1

[24] = target: Neu5Ac(a2-8)Neu5Ac(a2-8)Neu5Ac
How it was run: as §1

[25] = target: Neu5Ac(a2-8)Neu5Ac(a2-8)Neu5Ac(a2-3)Gal(b1-4)Glc
How it was run: as §1

[26] = target: Neu5Ac(a2-8)Neu5Ac(a2-8)Neu5Ac(a2-3)[Gal(b1-3)GalNAc(b1-4)]Gal(b1-4)Glc
How it was run: as §1

[27] = target: Neu5Ac(a2-8)Neu5Ac(a2-8)Neu5Ac(a2-3)[GalNAc(b1-4)]Gal(b1-4)Glc
How it was run: as §1

[28] = target: Neu5Ac(a2-8)Neu5Ac(a2-8)Neu5Ac(a2-8)Neu5Ac(a2-3)[GalNAc(b1-4)]Gal(b1-4)Glc
How it was run: as §1

B1: Epa1-NP (Candida glabrata), Q6VBJ0 (protein)
chain: MILNPALFLNKCVCIYTTLILLLLTNGGYATSSNDISLASKDPTTFPLGCSPDITTPKKGLSMELYSYDFRKKGSYPCWDAAYLDPNYPRTGYKSHRLLAKVDGVTGNINFYYHATKGCTPQLGHLPASYNYPKPLTMTNFTMLLYGYFRPKVTGFHTFTISADDLLFVNFGAGNAFDCCRRDSSADHFGNYQAYAIWGSKTAKDELTVHLDAGVYYPIRLFYNNREYDGALSFTFKTESNENTVSDFSEYFFSLDDTEEGCPGLISYDSSCASVKTSKIIGIDYHTETPNENLVPITKTIYHLGIPCTGTTTTPLCGSGFYDPLANKCVTINTSSTSSVTKTTSHTTSKEVSFHSSISSQKTLIPKSIPSPYGPIKSQSIPTEMETSSEISSSEYAFSDVISTPSHSPYTKKHSSLNSSSYTSTVIHSLTSYSISQGIFSTSLSEQNITSKSSTDKFSTATSMSNNITQSSIIISQFSTNNENYTTTSMHTSSDKISTETLNNSISTTTSILFSNSSTILKNNTTIISSDKDTHYHPVNPTIVCSTNKTEIICASITQPSISNSNNHWSSSVLKFNSTTVRSTLPSSAGSNETSINVPFSSSTESNTSTSSTSTSNSKMVRSTLPSSAGSNETSISVPFSSSTESNTSTSSTSTSNSKMVRSTLPSSAGSNETSINVPFSSSTESNTSTSSTSTSNSKTVRSTPFSSAGIIMTSLSQRNNKSASSYASSNSKCYNTADSCRKVHSTPSYLLTSSYTSEGVDYDCSLVSTKLKINDTNCVNNKHTTKSCLKTSVTTTIPTLEIKTARKSSSNTIGLHSYPTSSPNKSISSAPIIGYISSFKTIKTASPSYQTSDLTTITTITSLNNPGSTAVENTHESNDKSRKTSSNDISSKHSVIKETKDAVESSNKSHQTNTLKCSSIIIASSSHNSYESLGGTTLTLTLSKVYSPQNNDTLPFLEISEVNPSRTVLPESSKMMQYLTSTEERNKTARNTIATNIVSISTFHFEGEGNAIRMGYTQLLLMLIGIIVMNIGT
[1]
  glycan array binding signal (z-score): -0.171
[2]
  glycan array binding signal (z-score): -0.285
[3]
  glycan array binding signal (z-score): -0.273
[4]
  glycan array binding signal (z-score): -0.285
[5]
  glycan array binding signal (z-score): -0.279
[6]
  glycan array binding signal (z-score): 0.913
[7]
  glycan array binding signal (z-score): -0.313
[8]
  glycan array binding signal (z-score): -0.166
[9]
  glycan array binding signal (z-score): -0.274
[10]
  glycan array binding signal (z-score): -0.284
[11]
  glycan array binding signal (z-score): -0.24
[12]
  glycan array binding signal (z-score): 1.03
[13]
  glycan array binding signal (z-score): -0.31
Neu5Ac(a2-6)GalNAc
  glycan array binding signal (z-score): -0.306
[14]
  glycan array binding signal (z-score): -0.342
[15]
  glycan array binding signal (z-score): -0.288
[16]
  glycan array binding signal (z-score): -0.281
[17]
  glycan array binding signal (z-score): -0.282
Neu5Ac(a2-8)Neu5Ac
  glycan array binding signal (z-score): -0.295
[18]
  glycan array binding signal (z-score): -0.282
[19]
  glycan array binding signal (z-score): 0.029
[20]
  glycan array binding signal (z-score): -0.42
[21]
  glycan array binding signal (z-score): -0.29
[22]
  glycan array binding signal (z-score): 0.862
[23]
  glycan array binding signal (z-score): -0.333
[24]
  glycan array binding signal (z-score): -0.321
[25]
  glycan array binding signal (z-score): -0.328
[26]
  glycan array binding signal (z-score): -0.27
[27]
  glycan array binding signal (z-score): -0.344
[28]
  glycan array binding signal (z-score): -0.324

— the supplement of paper PMC8728848
